Source: the supplement of paper PMC8821664
Where a name gives a salt, the structure may show the parent alone. The list shows a part of the results. Repeats are few or missing, and single values can be far off. Positions of bridges follow the written chain, without caps; N, C: chain ends. Non-standard residues stand in square brackets, D forms with d. Residues, ends and D or L forms follow the SMILES beside them. *: point of attachment. Ileψ(thiazoline)Cys = CC[C@H](C)[C@H](N)C1=N[C@H](C(=O)*)CS1; dOrn = NCCC[C@@H](N)C(=O)O

What follows are compounds tested on Beas-2B AQP5-HiBiT reporter cells (assay: AQP5-HiBiT luminescence relative to vehicle (ratio to vehicle); higher = higher AQP5-HiBiT protein abundance). Conditions: 10 µM; 18 h.
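Note: monoclonal Beas-2B line stably carrying CMV promoter-driven AQP5-HiBiT, 5,000 cells per well in 384-well plates, lytic HiBiT plus LgBiT NanoLuc luminescence, FDA-approved drug library screen.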

SMILES | AQP5-HiBiT luminescence
CCN(CC)CC#CCOC(=O)C(O)(c1ccccc1)C1CCCCC1 (stereo not given) [Oxybutynin hydrochloride] | 1.14
CN(C/C=C/c1ccccc1)Cc1cccc2ccccc12 [Naftifine hydrochloride] | 0.708
CC[C@H](C)[C@H](N)C1=N[C@H](C(=O)N[C@@H](CC(C)C)C(=O)N[C@H](CCC(=O)O)C(=O)N[C@H](C(=O)N[C@H]2CCCCNC(=O)[C@H](CC(N)=O)NC(=O)[C@@H](CC(=O)O)NC(=O)[C@H](Cc3cnc[nH]3)NC(=O)[C@@H](Cc3ccccc3)NC(=O)[C@H]([C@@H](C)CC)NC(=O)[C@@H](CCCN)NC2=O)[C@@H](C)CC)CS1 [Bacitracin] ({Ileψ(thiazoline)Cys}-L[dE]IK[dOrn]I[dF]H[dD]N; lactam 4-C) | 1.13
Clc1ccc(COC(Cn2ccnc2)c2ccc(Cl)cc2Cl)cc1 (stereo not given) [Econazole nitrate] | 0.47
CC1(C)S[C@@H]2[C@H](NC(=O)[C@H](NC(=O)N3CCNC3=O)c3ccccc3)C(=O)N2[C@H]1C(=O)O [Azlocillin sodium] | 1.1
Cn1c(=O)c2c(ncn2CC(O)CO)n(C)c1=O (stereo not given) [Diprophylline] | 0.953
NC12CC3CC(CC(C3)C1)C2 [Amantadine hydrochloride] | 0.783
C[C@]12CC[C@@H]3c4ccc(O)cc4CC[C@H]3[C@@H]1CCC2=O [Aquacrine] | 0.586
NC(=O)c1cnccn1 [Pyrazinamide] | 1.11
C[C@H](CCC(=O)O)[C@H]1CC[C@H]2[C@@H]3CC[C@@H]4C[C@H](O)CC[C@]4(C)[C@H]3C[C@H](O)[C@]12C [Deoxycholic acid] | 0.731
